Results reported in PubChem BioAssay AID1814 (Broad Institute, 2009).
Out of some 300,000 compounds screened, about 22,000 (7.3%) were called active. Inconclusive results, whose numbers are uncertain, are shown with a selection of clear calls. Rule as the data show it: active = activity score below about -60%; inconclusive = mostly about -28% to -61%; inactive = positive scores.

Test: Activators working through SNCA 5'UTR binding (MLPCN) (AID 1814)
Details: alpha-synuclein 5'UTR reporter, activators screen; stronger effect = lower value; tested at 7.5 µM
With `CCOc1ccc(-c2c(C)n(-c3ccc(OCC)cc3)c3[n+]2CCCCC3)cc1` the activity score was inactive: 62%. In the case of `CC(C)(C)c1ccc(CSc2cnn(C(C)(C)C)c(=O)c2Cl)cc1`, the activity score is reported as inactive: 101%. For `COc1ccc(C(C)=O)cc1CC(C(=O)c1ccccc1)N(C)C` (stereo not given), the activity score was inconclusive: -58.2%. For `C#CCOc1cc(C2C3=C(COC3=O)Nc3cc4c(cc32)OCO4)ccc1OC` (stereo not given), the activity score was inactive: 77.8%. For `COC(=O)CSC1=NN1c1cc(C)nc(N)n1`, the activity score was inconclusive: -45.2%. With `CCOC(=O)c1sc(N=Nc2c(O)[nH]c(=O)[nH]c2=O)c(C(=O)OCC)c1C` the activity score was inconclusive: -41.3%. In the case of `O=C(Nc1ccc(Cl)cc1)O/N=C(\c1ccccc1)c1ccccn1`, the activity score is reported as inconclusive: -58.7%. For `COc1ccccc1C1=NCc2nnc(C)n2-c2ccc(Cl)cc21`, the activity score was inconclusive: -29.9%. For `CNC(=O)Oc1ccc2c(c1)C(=O)c1ccccc1CO2`, the activity score was inconclusive: -54.3%. In the case of `C/C=C(\C)C(=O)N[C@@H](c1ccccc1)[C@@H](O)C(=O)O[C@H]1C[C@@]2(O)[C@@H](OC(=O)c3ccccc3)C3[C@](C)(C(=O)[C@H](OC(C)=O)C(=C1C)C2(C)C)[C@@H](O)C[C@H]1OC[C@@]31OC(C)=O` (stereo not given in full), the activity score is reported as inactive: 104%. With `CCOc1cccc(CNCCc2c(C)[nH]c3ccc(OC(F)(F)F)cc23)c1O` the activity score was inactive: 113%. In the case of `O=C1CN(C(=O)CN2CCCCC2)C(c2ccccc2)c2cc(Br)ccc2N1` (stereo not given), the activity score is reported as inconclusive: -34.5%. With `O=Cc1cn(Cc2ccc(F)cc2)c2ccccc12` the activity score was inactive: 70.7%. In the case of `CC(C)Sc1nnc([C@@H](N)Cc2c[nH]c3ccccc23)o1`, the activity score is reported as inconclusive: -40%. In the case of `O=C(c1cc2c(s1)CCCC2)N1CCC2(CC1)OCCO2`, the activity score is reported as inconclusive: -60.9%. In the case of `C/C=C(\C)C(=O)N[C@@H](c1ccccc1)[C@@H](O)C(=O)O[C@H]1C[C@@]2(O)[C@@H](OC(=O)c3ccccc3)C3[C@](C)(C(=O)[C@H](O)C(=C1C)C2(C)C)[C@@H](O)C[C@H]1OC[C@@]31OC(C)=O` (stereo not given in full), the activity score is reported as inactive: 98.2%. For `CC(=O)Nc1ccc(OC(=O)N2CCCCC2)cc1`, the activity score was inactive: 69.5%. In the case of `CC(=O)Nc1ccccc1C(=O)OCc1ccc(C(=O)c2ccccc2)cc1`, the activity score is reported as inconclusive: -55.9%. With `Cc1ccc(C(=O)c2cc(Br)ccc2N)cc1` the activity score was inconclusive: -52.6%. With `O=c1cc(CN2CC=C(c3ccccc3)CC2)c2c(ccc3ccccc32)o1` the activity score was inconclusive: -59.1%. With `c1ccc(CN2CCc3nc4ccccc4cc3C2)cc1` the activity score was active: -171%. In the case of `Cn1cc(NC(=O)CCl)cn1`, the activity score is reported as inconclusive: -57.8%. For `NC(=S)c1cn(C2OC(CO)C(O)C2O)c2ncnc(N)c12` (stereo not given), the activity score was inactive: 105%. With `Cc1ccc(-c2cc(-c3ccccc3)cc(-c3ccccc3)[n+]2-c2ccccc2)cc1` the activity score was inactive: 84.5%. For `CCCCCn1c(=O)c(C(=O)Nc2ccccn2)c(O)c2ccccc21`, the activity score was inactive: 65.4%. With `CC(=O)OC(C)(C)/C=C/C(=O)C(C)(O)C1[C@H](O)C[C@@]2(C)C3CC=C4C(CC[C@@H](O)C4(C)C)[C@]3(CO)C(=O)C[C@]12C` (stereo not given in full) the activity score was inactive: 86.1%. With `C/C=C(\C)C(=O)OC1C(C)=C2C(C1OC(=O)CCCCC)C(C)(OC(C)=O)CC(OC(=O)CCC)C1(O)C2OC(=O)C1(C)O` (stereo not given) the activity score was inactive: 108%. With `CCC(=NCCC1=CCCCC1)c1c(O)[nH]c(=O)[nH]c1=O` the activity score was inactive: 48.3%. With `O=c1[nH]c(O)c(/C=C2/C=CC(c3cc(Cl)ccc3Cl)=N2)c(=O)[nH]1` the activity score was inconclusive: -55.8%. With `CN=C(SCC(=O)c1cccc(Cl)c1)c1c(O)n(C)c(=O)n(C)c1=O` the activity score was inconclusive: -58.6%. With `FC(F)(F)c1ccc(NC2=NCCCS2)cc1` the activity score was active: -68.7%. For `COc1ccccc1N1CCNCC1`, the activity score was inconclusive: -43.6%. For `CN(C)c1ccc(C(=O)N/N=C/C23CC[C@@H](O)CC2(O)CC[C@@H]2[C@@H]3CCC3(C)C(C4=CC(=O)OC4)CCC23O)cc1` (stereo not given in full), the activity score was inactive: 94.9%. For `C/C=C(\C)C(=O)N[C@@H](c1ccccc1)[C@@H](O)C(=O)O[C@H]1C[C@@]2(O)[C@@H](OC(=O)c3ccccc3)C3[C@](C)(C(=O)[C@H](OC(C)=O)C(=C1C)C2(C)C)[C@H](O)C[C@H]1OC[C@@]31OC(C)=O` (stereo not given in full), the activity score was inactive: 110%. With `COc1cccc(OC)c1C1=NCC(=O)Nc2c1oc1ccc(Br)cc21` the activity score was inactive: 59.3%. For `COC(=O)C1CN(C#N)N(c2ccc(Cl)cc2)C12c1ccccc1-c1ccccc12` (stereo not given), the activity score was inactive: 112%. For `CCCCN=C[C@]12CCC(O)CC1(O)CCC1[C@@H]2CC[C@]2(C)[C@H](C3C=CC(=O)O3)CCC12O` (stereo not given in full), the activity score was inactive: 96%. In the case of `O=Cc1cn(Cc2c(F)cccc2Cl)nc1-c1ccccc1`, the activity score is reported as inconclusive: -56.6%. With `COc1ccccc1OCCCn1cc(C(=O)c2ccco2)c2ccccc21` the activity score was inconclusive: -59.9%. With `O=c1c2ccccc2nc(/C=C/c2ccc([N+](=O)[O-])o2)n1-c1ccc(O)cc1` the activity score was inactive: 100%. In the case of `CCC(=NC(C)c1ccccc1)c1c(O)[nH]c(=O)[nH]c1=O` (stereo not given), the activity score is reported as inactive: 56.8%. For `CN(C)c1ccc(-[n+]2c(-c3ccccc3)cc(-c3ccccc3)cc2-c2ccccc2)cc1`, the activity score was inactive: 84.1%. With `O=C(N/N=C/c1c(O)n(-c2ccccc2)c(=S)[nH]c1=O)c1ccccc1` the activity score was inconclusive: -51.8%. For `CC12CC[C@H]3[C@@H](CCC4(O)C[C@H](O)CCC34/C=N/NC(=O)c3ccccc3O)C1(O)CCC2C1=CC(=O)OC1` (stereo not given in full), the activity score was inactive: 76.5%. In the case of `C[C@]12CCC3C(CCC4=CC(O)CC[C@@]43/C=N/O)C1(O)CCC2C1=CC(=O)OC1` (stereo not given in full), the activity score is reported as inactive: 113%. In the case of `COc1ccc(C(=O)N/N=C/C23CC[C@@H](O)CC2(O)CC[C@@H]2[C@@H]3CCC3(C)C(C4=CC(=O)OC4)CCC23O)cc1` (stereo not given in full), the activity score is reported as inactive: 88.5%. With `CCN(CC)C(=O)c1ccc(NC(=O)Nc2ccccc2F)cc1` the activity score was inactive: 59.4%. With `CCCCCCCCCCCCCCCC[N+](C)(C)C` the activity score was inactive: 97.6%. In the case of `COc1ccc(-c2cc(=NCCCCCC(=O)O)c3cc(C)ccc3o2)cc1`, the activity score is reported as inconclusive: -60.4%. For `CN(C)c1ccc2c(c1)N=C(c1ccco1)OP2(=S)N1CCOCC1` (stereo not given), the activity score was active: -130%. In the case of `CC(=O)O[C@@]12CO[C@@H]1C[C@@H](O)[C@@]1(C)C(=O)[C@H](O)C3=C(C)[C@@H](OC(=O)[C@H](O)[C@@H](NC(=O)c4ccccc4)c4ccccc4)C[C@@](O)([C@@H](OC(=O)c4ccccc4)C12)C3(C)C` (stereo not given in full), the activity score is reported as inactive: 113%. With `[O-]c1ccccc1-[n+]1c(-c2ccccc2)cc(-c2ccccc2)cc1-c1ccccc1` the activity score was inactive: 60.9%. In the case of `O=c1[nH]c(=O)n(-c2ccccc2)c(O)c1/C=C1/C(c2ccccc2)=Nc2ccccc21`, the activity score is reported as inconclusive: -59.9%. In the case of `COc1ccc(-n2c(/C=C3\C(=O)Nc4ccccc43)nc3ccccc3c2=O)cc1`, the activity score is reported as inconclusive: -58.6%. In the case of `COC(=O)C1=C(c2cc3ccccc3o2)C[C@@H]2CC[C@H]1N2C(=O)N1CCCCC1`, the activity score is reported as inactive: 66.4%. With `O=C(O)C(Cl)Cl` the activity score was inconclusive: -17%. In the case of `COc1ccc(C2NCc3ccc4c(c3-n3cccc32)OCO4)cc1O` (stereo not given), the activity score is reported as inactive: 61%. For `COc1ccc(CNCCc2c(C)[nH]c3ccc(OC(F)(F)F)cc23)c(OC)c1`, the activity score was inactive: 90.5%. With `COc1cc2c(c(OC)c1OC)-c1ccc(O)c(=O)cc1C(NC(C)=O)CC2` (stereo not given) the activity score was inactive: 90.3%. With `CCC1(OC(=O)CN)C(=O)OCc2c1cc1n(c2=O)Cc2cc3ccccc3nc2-1` (stereo not given) the activity score was inactive: 103%. With `O=c1[nH]c(O)c(C=NCCc2ccccc2)c(=O)[nH]1` the activity score was inconclusive: -34.2%. With `CN1C(=O)C(=Cc2ccccc2OCc2ccc(Cl)cc2)C(=O)N(C)C1=O` the activity score was inconclusive: -27.1%. With `Cc1cc([P+](=O)O)c(C)n1-c1ccc(Br)cc1` the activity score was inconclusive: -54.8%. In the case of `CC(C)[C@]12O[C@H]1[C@@H]1O[C@]13[C@]1(O[C@H]1C[C@H]1C4=C(CC[C@@]13C)C(=O)OC4)[C@@H]2O`, the activity score is reported as inactive: 124%. For `O=C(c1ccccc1)C1NC1c1ccccc1` (stereo not given), the activity score was inconclusive: -47.7%. For `CCCNc1oc(-c2cccc3ccccc23)nc1C#N`, the activity score was inconclusive: -60.5%. In the case of `Cn1c(O)c(C=NC2CCCCCC2)c(=O)[nH]c1=S`, the activity score is reported as inconclusive: -59.4%. With `COc1cccc(-n2c(CN3CCN(C)CC3)nc3ccc([N+](=O)[O-])cc3c2=O)c1` the activity score was inconclusive: -49.2%. In the case of `Cc1ccc(-c2nc3ccccc3c(=O)n2-c2ccccn2)cc1`, the activity score is reported as inconclusive: -56.6%. In the case of `CCCCCCn1c(=O)c(C(=O)Nc2ncccc2O)c(O)c2ccccc21`, the activity score is reported as inactive: 91.9%. For `CCOC(=O)c1c(C)n(Cc2ccc3c(c2)OCO3)c2ccc(O)cc12`, the activity score was inconclusive: -51.4%. In the case of `Cc1cccc(OCC(=O)N2CCN(Cc3cccnc3)CC2)c1`, the activity score is reported as inconclusive: -38%. With `Cn1c(O)c(C=Nc2ccc3c(c2)CCC3)c(=O)n(C)c1=O` the activity score was inconclusive: -57.6%. For `O=[N+]([O-])c1ccc(NC2CCCC2)c2ccncc12`, the activity score was inactive: 58%. For `COc1ccc(O)c2c(=O)c3c(OC)cc4c(c3oc12)C1C=COC1O4` (stereo not given), the activity score was inactive: 94%.
